B1: PhoQ; a variant is named by its letters at X, in order, P23837 (parent)
chain: MKKLLRLFFPLSLRVRFLLATAAVVLVLSLAYGMVALIGYSVSFDKTTFRLLRGESNLFYTLAKWENNKLHVELPENIDKQSPTMTLIYDENGQLLWAQRDVPWLMKMIQPDWLKSNGFHEIEADVNDTSLLLSGDHSIQQQLQEVREDDDDAEMTHSVAVNVYPATSRMPKLTIVVVDTIPVELKSSYMVWSWFIYVLSANLLLVIPLLWVAAWWSLRPIEALAKEVRELEEHNRELLNPATTRELTSLVRNLNRLLKSERERYDKYRTTLTDLTHSLKTPLXXLQXXLRSLRSEKMSVSDAEPVMLEQISRISQQIGYYLHRASMRGGTLLSRELHPVAPLLDNLTSALNKVYQRKGVNISLDISPEISFVGEQNDFVEVMGNVLDNACKYCLEFVEISARQTDEHLYIVVEDDGPGIPLSKREVIFDRGQRVDTLRPGQGVGLAVAREITEQYEGKIVAGESMLGGARMEVIFGRQHSAPKDE

This is one part of the list. Bounds are passed on as bounds.

We go through 195 variants from a collection of fitness landscapes (doi:10.1126/science.1257360).

The variants in the experiment derive from B1. The experiment in a line: enrichment ratio after two sorts for PhoP signalling (ratio (wild type AVST 3.29)); higher = more functional. The following applies: with PhoP (E. coli).
For GSLV, the enrichment ratio was found to be 17.9. Turning to LKHT, the enrichment ratio was ≤ 0.25. For the variant IFDF, the enrichment ratio is ≤ 0.25. For DKVP, the enrichment ratio is ≤ 0.25. As to SDPD, the enrichment ratio was ≤ 0.25.

Take SELS: the enrichment ratio is 20.9. As to LIMI, the enrichment ratio is ≤ 0.25. As for YCSQ, the enrichment ratio was ≤ 0.25. For ETNW, the enrichment ratio was ≤ 0.25. Turning to KDCF, the enrichment ratio is ≤ 0.25.

YRWM: the enrichment ratio was ≤ 0.25. Consider YIIC, for which the enrichment ratio was ≤ 0.25. As for SYRL, the enrichment ratio was ≤ 0.25. GREV: the enrichment ratio is ≤ 0.25. On to QPIK, for which the enrichment ratio was ≤ 0.25.

Take DSHH: the enrichment ratio is ≤ 0.25. Turning to FIQK, the enrichment ratio was ≤ 0.25. In the case of NINY, the enrichment ratio was ≤ 0.25.

As for QYPD, the enrichment ratio is ≤ 0.25. Regarding CYFP, the enrichment ratio is ≤ 0.25. With VRML the figure was ≤ 0.25. VVPK: the enrichment ratio was ≤ 0.25. The same measure for YFDY: ≤ 0.25; for WNNY: ≤ 0.25.

Take VYED: the enrichment ratio was ≤ 0.25.

With HEHI, the enrichment ratio is ≤ 0.25.

Turning to MAAA, the enrichment ratio is ≤ 0.25. Consider WEPH, for which the enrichment ratio is 1.73. With TPCG, the enrichment ratio was ≤ 0.25.

Consider RDFI, for which the enrichment ratio was ≤ 0.25. In the case of PKTL, the enrichment ratio was ≤ 0.25. Regarding YKNS, the enrichment ratio is ≤ 0.25.

With MCMG, the enrichment ratio worked out at 7.07. Turning to IGFD, the enrichment ratio was ≤ 0.25. With MQYY the figure was ≤ 0.25.

Consider SWCD, for which the enrichment ratio was ≤ 0.25. Take LQEP: the enrichment ratio was ≤ 0.25. The same measure for DMMR: ≤ 0.25; for DSFR: ≤ 0.25; for GQMM: 11.4. With YDVF the figure was ≤ 0.25; with YMHF, ≤ 0.25. With VCQM the figure was ≤ 0.25; with WTYW, ≤ 0.25; with RSKD, ≤ 0.25. For the variant RCLK, the enrichment ratio is ≤ 0.25. In the case of VWIH, the enrichment ratio is ≤ 0.25. As for YILM, the enrichment ratio stood at 12.1. In the case of GNHI, the enrichment ratio is ≤ 0.25.

Turning to IALE, the enrichment ratio is ≤ 0.25. The same measure for FIVH: ≤ 0.25. Turning to NWPT, the enrichment ratio was ≤ 0.25. Turning to REHT, the enrichment ratio is ≤ 0.25. Take RYYF: the enrichment ratio was ≤ 0.25. With SHSW the figure was ≤ 0.25; with TFLD, ≤ 0.25; with QQKF, ≤ 0.25. On to IPHC, for which the enrichment ratio is ≤ 0.25. With ELPV, the enrichment ratio is ≤ 0.25. For the variant WVTR, the enrichment ratio is ≤ 0.25. In the case of APFG, the enrichment ratio is ≤ 0.25. Take KHLM: the enrichment ratio was ≤ 0.25. With TRHN the figure was ≤ 0.25; with NTKA, ≤ 0.25.

On to KGGM, for which the enrichment ratio is ≤ 0.25. In the case of HWSY, the enrichment ratio is ≤ 0.25. With AAFL, the enrichment ratio was ≤ 0.25. With NVSW, the enrichment ratio was ≤ 0.25.

On to DHCK, for which the enrichment ratio is ≤ 0.25. Regarding AGNL, the enrichment ratio is ≤ 0.25. Turning to YNCK, the enrichment ratio is ≤ 0.25.

As to MDYD, the enrichment ratio is ≤ 0.25.

Consider FEDS, for which the enrichment ratio was ≤ 0.25.

Turning to NQKG, the enrichment ratio is ≤ 0.25. On to LPDN, for which the enrichment ratio was ≤ 0.25.

Turning to RLCM, the enrichment ratio was ≤ 0.25. Take AYFH: the enrichment ratio is ≤ 0.25. For YLMQ, the enrichment ratio is ≤ 0.25. As for TGVP, the enrichment ratio is ≤ 0.25. Regarding PRVS, the enrichment ratio is ≤ 0.25. With PGMC the figure was ≤ 0.25.

Take YSSH: the enrichment ratio is ≤ 0.25.

Regarding MAYY, the enrichment ratio stood at 5.48. With AKSM, the enrichment ratio is 15.5. For the variant RDPS, the enrichment ratio was ≤ 0.25.

On to KSVT, for which the enrichment ratio is ≤ 0.25. With IYLK the figure was ≤ 0.25; with VSHV, ≤ 0.25. With SYIW the figure was ≤ 0.25. With RPDI, the enrichment ratio was ≤ 0.25. The same measure for SNRY: ≤ 0.25; for ESQW: ≤ 0.25; for ASTI: 13.9. As to KHKM, the enrichment ratio was ≤ 0.25. With SNHH the figure was ≤ 0.25; with ESAF, ≤ 0.25. Consider WSKE, for which the enrichment ratio was ≤ 0.25. For WGFS, the enrichment ratio was ≤ 0.25.

Regarding DAPA, the enrichment ratio is ≤ 0.25. As for VWTI, the enrichment ratio was ≤ 0.25.

For the variant PALI, the enrichment ratio was ≤ 0.25. Consider KFSW, for which the enrichment ratio is ≤ 0.25.

As to SGFL, the enrichment ratio worked out at 4.93. Consider GWCT, for which the enrichment ratio is ≤ 0.25. Regarding PIEG, the enrichment ratio was ≤ 0.25. In the case of RADD, the enrichment ratio was ≤ 0.25.

Take VKHD: the enrichment ratio was ≤ 0.25. On to EKDY, for which the enrichment ratio was ≤ 0.25. On to HYGH, for which the enrichment ratio was ≤ 0.25.

LYEH: the enrichment ratio was ≤ 0.25.

VSRS: the enrichment ratio was ≤ 0.25. As to DCSY, the enrichment ratio was ≤ 0.25.

For GNFR, the enrichment ratio is ≤ 0.25. In the case of HPPD, the enrichment ratio is ≤ 0.25. Consider TQRI, for which the enrichment ratio is ≤ 0.25. YRRV: the enrichment ratio was ≤ 0.25. For the variant KPYI, the enrichment ratio was ≤ 0.25. The same measure for DFDV: ≤ 0.25; for EFDW: ≤ 0.25; for EETV: ≤ 0.25. As for WIVS, the enrichment ratio is ≤ 0.25.

Take ECAK: the enrichment ratio is ≤ 0.25. As for VLLH, the enrichment ratio was determined as 0.422. With SMHW the figure was ≤ 0.25; with NMHH, ≤ 0.25; with WKLR, ≤ 0.25.

Turning to WKQS, the enrichment ratio was ≤ 0.25. In the case of WGRI, the enrichment ratio was ≤ 0.25. Take APSH: the enrichment ratio was ≤ 0.25. With QAFE, the enrichment ratio was ≤ 0.25.

As for INTF, the enrichment ratio was ≤ 0.25. On to WTAL, for which the enrichment ratio is ≤ 0.25.

Turning to HAGN, the enrichment ratio was ≤ 0.25. On to WPLS, for which the enrichment ratio is ≤ 0.25. For the variant IHWY, the enrichment ratio was ≤ 0.25. As for QTHG, the enrichment ratio was ≤ 0.25. Consider EGHQ, for which the enrichment ratio was ≤ 0.25. For NAGL, the enrichment ratio is ≤ 0.25.

On to AHQM, for which the enrichment ratio is ≤ 0.25. For the variant ESWW, the enrichment ratio is ≤ 0.25. Turning to KFNW, the enrichment ratio is ≤ 0.25.

As to VSVL, the enrichment ratio was found to be 2.56. Turning to YPIF, the enrichment ratio is ≤ 0.25. As for SEIH, the enrichment ratio was 3.05. With NTSN, the enrichment ratio is ≤ 0.25. The same measure for QFCL: ≤ 0.25; for NPAR: ≤ 0.25.

In the case of NILY, the enrichment ratio is ≤ 0.25. As for GTMY, the enrichment ratio stood at 5.58. For QTHM, the enrichment ratio is ≤ 0.25. MQVM: the enrichment ratio is ≤ 0.25. THEA: the enrichment ratio is ≤ 0.25. In the case of DIHG, the enrichment ratio is ≤ 0.25. KNPI: the enrichment ratio is ≤ 0.25. LQTV: the enrichment ratio is ≤ 0.25. In the case of SLYM, the enrichment ratio is ≤ 0.25.

On to YYYW, for which the enrichment ratio is ≤ 0.25. For VVDN, the enrichment ratio is ≤ 0.25. In the case of DHRV, the enrichment ratio was ≤ 0.25. Consider ENVG, for which the enrichment ratio was ≤ 0.25.

On to FYCY, for which the enrichment ratio is ≤ 0.25. Turning to FIWI, the enrichment ratio was ≤ 0.25. Consider HCWM, for which the enrichment ratio is ≤ 0.25.

In the case of QELT, the enrichment ratio is ≤ 0.25. On to ASPP, for which the enrichment ratio was ≤ 0.25. Turning to SILL, the enrichment ratio stood at 1.4. On to MNRH, for which the enrichment ratio was ≤ 0.25.

Take SQGA: the enrichment ratio was ≤ 0.25. FMAS: the enrichment ratio is ≤ 0.25.

Take LKWR: the enrichment ratio was ≤ 0.25. For TNKT, the enrichment ratio was ≤ 0.25.

For the variant NQMA, the enrichment ratio is ≤ 0.25. As for HPPK, the enrichment ratio was ≤ 0.25. Take YRCD: the enrichment ratio is ≤ 0.25. For DNMS, the enrichment ratio was ≤ 0.25. Regarding FNKK, the enrichment ratio is ≤ 0.25. Turning to MYAV, the enrichment ratio amounted to 0.428.

In the case of LVEP, the enrichment ratio was 0.737.

Turning to EFTR, the enrichment ratio is ≤ 0.25.

Consider WTGY, for which the enrichment ratio is ≤ 0.25. WFWQ: the enrichment ratio was ≤ 0.25. Regarding AAIW, the enrichment ratio is 0.575. The same measure for DGNI: ≤ 0.25.

Turning to AGWL, the enrichment ratio was ≤ 0.25. The same measure for YYCN: ≤ 0.25. The same measure for IVSY: ≤ 0.25; for TVNC: 3.39. Turning to RVRS, the enrichment ratio was ≤ 0.25.

For the variant QNHW, the enrichment ratio is ≤ 0.25. As to DQIF, the enrichment ratio was ≤ 0.25.

On to FKFK, for which the enrichment ratio was ≤ 0.25. On to DIIG, for which the enrichment ratio is ≤ 0.25.

For the variant SPAY, the enrichment ratio was ≤ 0.25. As for GDNF, the enrichment ratio is ≤ 0.25. Take EGPQ: the enrichment ratio is ≤ 0.25.
